In the supplement of paper PMC4604168 (melanoma cell lines):
This is one part of the list. Most values come without repeats; read them as rough.

Key:
Assay in all cases: cell count relative to DMSO control; melanoma cells; higher = more viable cells
Conditions in all cases: library dose: standard library concentration; 72 h
501Mel = test system: 501Mel
A101D = test system: A101D
A2058 = test system: A2058
A375 = test system: A375
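Also: cells treated in 1,536-well plates, then fixed and DAPI-stained, with nuclei counted from automated high-throughput microscope images.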

CC(C)C[C@H](NC(=O)[C@H](Cc1ccccc1)NC(=O)c1cnccn1)B(O)O [Bortezomib] + Cn1cc(/C=C2\C(=O)Nc3cccnc32)c2ccccc21 [GW441756] (first compound 0.005 µM, partner dose 2 µM)
cell count (501Mel): 2.11%
cell count (A101D): 12.8%
cell count (A2058): 8.31%
cell count (A375): 71.2%

Cc1cc(Nc2cc(N3CCN(C)CC3)nc(/C=C/c3ccccc3)n2)n[nH]1 + O=c1cc(-c2cccc3c2Sc2ccccc2S3)oc(N2CCOCC2)c1 [KU55933] (first compound 0.2 µM, partner dose 5 µM)
cell count (501Mel): 97.8%
cell count (A101D): 86.9%
cell count (A2058): 91%
cell count (A375): 129%

COc1ccc(C2=N[C@@H](c3ccc(Cl)cc3)[C@@H](c3ccc(Cl)cc3)N2C(=O)N2CCNC(=O)C2)c(OC(C)C)c1 [Nutlin-3] + O=C1NC(=O)/C(=C/c2ccc(-c3ccc(F)cc3O)o2)S1 [AS252424] (first compound 0.5 µM, partner dose 5 µM)
cell count (501Mel): 80.1%
cell count (A101D): 69%
cell count (A2058): 98.2%
cell count (A375): 103%
